Source: the supplement of paper PMC11417369
± gives the standard deviation of the averaged measurements. The list shows a part of the results.

These sequences were tested on PfAP2-EXP AP2 domain (GST-tagged) (assay: gcPBM binding intensity (ln(normalized median fluorescence intensity)); higher = stronger DNA binding).
Procedure, shortened: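 After 1 h on an Agilent 4 × 180k array of primer-extended double-stranded 36-bp intergenic genomic probes and negative controls, bound GST-tagged P. falciparum DNA-binding domains were detected with Alexa488 anti-GST antibody and scanned at 488 nm. The domains had been expressed in E. coli, and binding took place in 1× PBS with 1% milk, 0.2 mg/ml BSA, 0.5% salmon testes DNA and 0.03% Triton X-100. Binding intensity is the highest Masliner-normalised natural-log median intensity across replicate spots of either probe orientation.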

Sequence | gcPBM binding intensity (ln)
TCTCACATTCTTATGGGTACACATGAGAAATTATAA [XGTACX_site6799] | 8.57 ± 0.26
TGGGTGGTAAAAATGTGTACATAAAAAAATAATGTT [XGTACX_site2235] | 8.95 ± 0.3
AATATACACCCGTGTACACAAATATTTACAAAACGT [CACACA_site4786] | 8.96 ± 0.39
GTTACACCAACAAACACACACACACCCACCCACAAA [CACACA_site2427] | 8.93 ± 0.74
AAAAGGAATGAAAATTCACACAACTATAAATACATA [CACACA_site5337] | 8.55 ± 0.42
GGTATTACCTGTTTGTTATGTAGATGTTGCTAGGAT [GTGCAC_negctrl_site736] | 8.92 ± 0.49
TAATTCTTTATAATAACACACATTCATATACAATAA [CACACA_site2499] | 8.29 ± 0.24
ATACCAATAATATACATACACACATAAAGGTTTATA [CACACA_site314] | 8.43 ± 0.36
AAGAAAAACTAAAGAGTTCTGTTCATATCTCTTTGG [TGCATGCA_negctrl_site549] | 8.24 ± 0.56
AAGGAAAAACCATTCGCACACACACCGAATATATAA [CACACA_site8403] | 8.59 ± 0.3
TATATCAAATTCTAAACATGCACAAAAAACTTATAA [TGCATGCA_site510] | 8.78 ± 0.27
TATTTATATAGACACACACACATATATTTATATTTT [CACACA_site7240] | 8.52 ± 0.45
ACTTAAATAATACATACACACATGTACATACAGAAA [CACACA_site1595] | 8.73 ± 0.15
TTTACATTTAATAAAAGTACTTATTTCATATACATA [XGTACX_site659] | 8.4 ± 0.26
ACACATATGACAAATAGTACATAAATATATAAATAT [XGTACX_site7141] | 8.57 ± 0.49
AAAAAATTTCAAATAACACACACTAATATATATATG [CACACA_site1426] | 8.61 ± 0.35
TAAATATATAATTGTAGTACTGTTTTATGTTCATAA [XGTACX_site1020] | 8.38 ± 0.39
AATATTCACATTTGTTGTACATTCCTAGTTATATAA [XGTACX_site491] | 8.89 ± 0.4
AAGGAAAATTTTTGGTGTACACAAAAAAATCCAAAA [XGTACX_site3596] | 8.88 ± 0.31

Sequence | gcPBM binding intensity (ln)
TAAACAGATATATTTTGTACATATTGTATATTTTGT [XGTACX_site713] | 8.21 ± 0.45
ACAAAAAAGTAAAAAGTGCATGTAAAATATAAGTAT [GTGCAC_site9438] | 9.37 ± 0.32
AATAAATCTTTTTGTTGTACTAAAAATATTATTAGC [XGTACX_site3335] | 8.21 ± 0.42
TTAATATATTATATTTGTACATATATATATATACAA [XGTACX_site4798] | 8.38 ± 0.36
AAATTGTGTTCATCAGCACACACAACATCATGTAAT [CACACA_site8556] | 8.51 ± 0.41
CGAAAGAAAAAAAGCACACACAGTTTTGAGCAATGA [CACACA_site2109] | 8.54 ± 0.59
CTTATTTCCTTTTGTAGTACCTTATAATATATATAA [XGTACX_site8873] | 9.04 ± 0.38
TTATATATTTTTTGCACACCAAAAAAGAGAATATTC [CACACA_site2730] | 8.8 ± 0.27
GGGAAGTAGTAGTAATGTACTTATTTATTATGTGAC [XGTACX_site3985] | 8.71 ± 0.35
GCATTTCTACTAAAAATACACACGATGATACAACGA [CACACA_site1756] | 8.61 ± 0.38
TAATAATAGTACTCACATCAAAGTATTATTAAAAAT [TGCATGCA_negctrl_site496] | 8.29 ± 0.28
TTCTATTTGTAAAATTGTACAAAATAAATAACAAAA [XGTACX_site1007] | 8.72 ± 0.34
TATAAATATAAATACACACACATATATATTATATAT [CACACA_site4496] | 8.39 ± 0.38
ATATATATATATATGTGTACATAATAACTTTGCTTA [XGTACX_site1255] | 10.1 ± 0.24
ACCTATTTCAAACACACACACACACTAGCAAACATA [CACACA_site4695] | 8.78 ± 0.52
TATATATATATATGTTGTACATATTTAAATGTTTAT [XGTACX_site5437] | 10.2 ± 0.2
TAAAAAATGTTATATACACACAGTATAAAAAAAAAT [CACACA_site7808] | 8.61 ± 0.57
CCACGTATAATATGTACACACACATAAATACAAAAA [CACACA_site4660] | 8.76 ± 0.49
AATTAAATTATAAGCACACACATATATATATATATA [CACACA_site3351] | 10.2 ± 0.32

Sequence | gcPBM binding intensity (ln)
ATATATTATTATAACTGTACTTTTTTTGTGGTTAAT [XGTACX_site8266] | 8.63 ± 0.33
TATGCGTATATATAAATACACACCAAATGTTAATAT [CACACA_site1713] | 8.49 ± 0.3
CCATTTACATTGTGAAGTACTAAAAAAAAATGTAGA [XGTACX_site7882] | 8.7 ± 0.34
ACAAGGAATATAAAAAGTACATAAAATACATAAAAA [XGTACX_site1217] | 8.81 ± 0.33
ATATAAATATAAATATATATGTATAAATATAAATAT [CACACA_negctrl_site247] | 8.25 ± 0.47
TATGGATGTATTCATACATGCACACGTACATATTTA [TGCATGCA_site991] | 8.71 ± 0.2
ATAATTTGATGGTTAACACACATATATATTATATAT [CACACA_site2449] | 8.63 ± 0.41
TATATATATATATATACACACAAAAAAATAAATTCT [CACACA_site98] | 10.1 ± 0.57
TACTTTTCATCTTCTTAACACACAAAAAAAAAAAAA [CACACA_site9290] | 8.46 ± 0.38
ATTTATTTTAATAATTGTACATGTTATTTTATATAT [XGTACX_site2667] | 8.41 ± 0.46
ATCATTTTTAAAGGAACACACAAAAAAAGTTATAAT [CACACA_site6761] | 8.82 ± 0.55
ATACATCAAGGACACACACACACACGCACACGCACA [CACACA_site6310] | 8.68 ± 0.45
AAACTATTCACTATAATACATTAGAAGTGAATAAAA [TGCATGCA_negctrl_site498] | 8.38 ± 0.45
TTATGATGGTCTTTATAAGGGCACATTAAATTCGGC [TGCATGCA_negctrl_site166] | 8.72 ± 0.35
AATAGCAATTTGGGGTGTACACACACCTTATTTAAA [XGTACX_site2234] | 8.64 ± 0.4
TGAAAAGGAAATTGTTGTACATATGTTTCTTCCTAA [XGTACX_site3932] | 8.44 ± 0.55
ATATATTTAACAAGATGTACAATTTTATAAAAAATA [XGTACX_site2351] | 8.45 ± 0.26
AGAAATTAATCGAGGTGTACGTACATCCAAATATAT [XGTACX_site7650] | 8.87 ± 0.42
